Measured values: patent US20170157165A1 (RIBOMIC, published 2017)

Target: T1, human FGFR4 fused with the Fc portion of IgG (manufactured by R&D Systems) (human, UniProt P22455 22-369)
T1 construct: Bought construct, captured on Protein A on a CM5 chip (about 1,000 RU); not shown: Fc portion of IgG
T1 sequence (looked up): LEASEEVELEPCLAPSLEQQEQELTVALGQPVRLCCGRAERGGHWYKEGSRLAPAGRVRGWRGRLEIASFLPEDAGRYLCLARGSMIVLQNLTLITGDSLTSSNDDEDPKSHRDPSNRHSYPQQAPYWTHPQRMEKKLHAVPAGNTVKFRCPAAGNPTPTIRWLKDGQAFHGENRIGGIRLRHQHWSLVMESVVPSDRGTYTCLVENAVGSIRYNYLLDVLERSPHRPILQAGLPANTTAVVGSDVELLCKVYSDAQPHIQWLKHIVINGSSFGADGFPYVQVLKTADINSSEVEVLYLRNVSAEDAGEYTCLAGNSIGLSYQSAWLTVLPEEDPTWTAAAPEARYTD
Experiment: SPR (BIAcore2000), receptor-Fc captured on Protein A on CM5 chip, FGF2 0.1 uM + heparin 0.1 uM as analyte
Procedure: BIAcore2000 manufactured by BIAcore was used for the measurement. As directed in BIAcore Company's protocol, Protein A (21181, manufactured by PIERCE) was immobilized on a CM5 sensor chip. About 1,000 RU of human FGFR1α (IIIc), R2α (IIIc), R3 (IIIc), R4 (manufactured by R&D Systems) fused with the Fc portion of IgG (manufactured by R&D systems) was each immobilized thereon. As analyte, a mixture of FGF2 (0.1 μM), heparin (0.1 μM) (manufactured by Pfizer) and aptamer (0.15 μM) was flown. Before an inhibitory test, a mixture of FGF2 and heparin was confirmed to bind to 4 kinds of receptors. […] A sensorgram showing that the aptamer shown by aptamer ID 1 inhibits binding of FGF2 and FGFR1α(IIIc), 2α(IIIc), 3(IIIc), 4 is shown in FIG. 2.

B1: Human FGF2 (manufactured by Peprotech Inc.) (ligand)
chain: not shown
notes: also called bFGF; basic fibroblast growth factor
binding result: binds
